# PubChem BioAssay AID445 (National Center for Advancing Translational Sciences (NCATS), 2006)
# In all, about 110,000 compounds went through this assay and about 40 (0.04%) were called active. Inconclusive means that the source gave no clear call. Such entries were picked first, then a sample of the others. Calls follow the shape of the dose curve; as a rule, active = well fitted curve in the direction sought with a large enough effect in the signal ratio (not every such curve was filed as active); inconclusive = small, poorly fitted or top-dose-only effect, or a change in a side signal; inactive = flat fitted curve, though single readings scatter; the % refers to the signal ratio. Potencies beside an inconclusive call are fits to weak or partial responses and may not hold up.
# Assay: IkB Signaling;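 as to IkBa stabilization activation: 0% = basal untreated cells and 100% = reference inhibitor full response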
# Conditions: ABC-DLBCL IkBa-CBG/CBR dual luciferase ratio (green luciferase fused to IkBa over red control in OCI-Ly3 lymphoma cells), 4 h; IkBa stabilization activation: at 57.1 µM (top of the series), scaled: untreated 0%, proteasome inhibitor 100% unless noted
# Summary of the method: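 Curves were fitted separately to fusion (green), unfused (red) and ratio luminescence, then classed by r2, magnitude and activity. Cells: OCI-Ly3, 4 h compound plus doxycycline at 37C; 10 uM MG-132 defined full response.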
# Potency is read from the fitted curve at half-maximal effect.
SMILES,IkBa stabilization activation,Potency
CCOc1ccc(S(=O)(=O)c2c(C(=O)c3ccc(CC)cc3)cnc3ccc(C)cc23)cc1,inactive,
CCOC(=O)/C=C1\NC(C)(C)Cc2cc(OC)c(O)cc21,inactive,
CCOC(=O)C1CCN(C(=O)COc2cccc(C)c2)CC1,,"inconclusive: 25.1 µM [signal inhibitor, partial curve]"
COc1ccc(C2C(=O)N(C3CCCCCC3)CC(=O)N2Cc2ccc(C)cc2)cc1 (configuration not stated),inconclusive: 0.158% [signal inhibitor],
O=C1CC(c2nc(-c3ccc(Cl)cc3)no2)CN1c1ccc2c(c1)OCCO2 (configuration not stated),inconclusive: 2.17% [signal inhibitor],
COCCn1c(=O)c(-c2cc(F)cc(F)c2)nc2cnc(N3CCOCC3)nc21,"inactive: 3.57% [at 11.4 µM, scaled: untreated 0%, proteasome inhibitor 100%]",
CCCS(=O)(=O)O,"inactive: 0.0832% [at 11.4 µM, scaled: untreated 0%, proteasome inhibitor 100%]",
O=C1C(c2ccc(F)cc2)N(CCc2ccc(Cl)cc2)C(=O)CN1C1CCCCCC1 (configuration not stated),inconclusive: -0.0245% [signal inhibitor],
CC(C)(C)CC(=O)NCC(c1ccc2c(c1)OCO2)N1CCN(c2ccccc2)CC1 (configuration not stated),inconclusive: 2.3% [signal inhibitor],
CC(=O)c1ccc(NC(=O)c2cc(-c3ccc(C)s3)nc3ccccc23)cc1,inconclusive: 6.84% [signal inhibitor],
O=C(c1cccc(F)c1)N1CCC[C@@]2(CCN(c3ccccc3)C2)C1,"inactive: 2.38% [at 11.4 µM, scaled: untreated 0%, proteasome inhibitor 100%]",
O=C(CSc1nccn1-c1ccc(Cl)cc1)Nc1ccc(Cl)c(Cl)c1,inconclusive: 4.69% [signal inhibitor],
COc1cc(NC(=O)N2c3ccccc3Sc3ccccc32)cc(OC)c1,inconclusive: 4.37% [signal inhibitor],
CN1CCN(c2ccc(Cl)cc2NC(=O)C2COc3ccccc3O2)CC1 (configuration not stated),inconclusive: 0.466% [signal inhibitor],
CCOC(=O)N1CCc2c(sc3c2c(=O)n(CCc2ccccc2)c(=O)n3CC(=O)Nc2ccc(C)cc2)C1,inconclusive: 0.65% [signal inhibitor],
COc1ccccc1C(=O)NCC(c1cccnc1)N1CCc2ccccc2C1 (configuration not stated),inconclusive: 2.01% [signal inhibitor],
Cc1cccc(N2CCN(C(=O)CN3C(=O)CSc4c3c(C)nn4-c3ccccc3)CC2)c1C,inconclusive: 0.542% [signal inhibitor],
